# Among all 280,000 compounds or so, about 100 (0.036%) were called active. The inconclusive results got no clear call from the source; some entries with a clear call stand among them for comparison. The call rests on the fitted dose curve; in most records, active means well fitted inhibition curve with a large enough effect in the signal ratio, with a control signal flat (not every such curve was filed as active); inconclusive means small, poorly fitted or top-dose-only effect, or effect the other way, or a change in a side signal; inactive means no such curve, though single readings can be large or run the other way; the % refers to the signal ratio. Potencies beside an inconclusive call are fits to weak or partial responses and may not hold up. A note “side channel” means that the fit belongs to a control or component signal, not to the main read-out.
# Biological target: Muscleblind-like protein 1 (Homo sapiens) (UniProt Q9NR56)
# Sequence of UniProt Q9NR56 (Q9NR56 whole entry, looked up): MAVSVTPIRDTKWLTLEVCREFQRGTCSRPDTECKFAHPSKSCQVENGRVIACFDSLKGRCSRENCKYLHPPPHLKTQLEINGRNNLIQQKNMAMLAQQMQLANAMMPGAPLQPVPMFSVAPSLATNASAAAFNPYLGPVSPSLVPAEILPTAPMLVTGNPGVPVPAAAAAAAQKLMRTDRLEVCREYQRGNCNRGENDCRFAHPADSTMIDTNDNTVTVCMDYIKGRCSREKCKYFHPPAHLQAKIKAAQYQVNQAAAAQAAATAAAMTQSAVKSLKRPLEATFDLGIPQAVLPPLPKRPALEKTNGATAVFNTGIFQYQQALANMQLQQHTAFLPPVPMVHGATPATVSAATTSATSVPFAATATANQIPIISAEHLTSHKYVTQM
# Test: qHTS Assay for Inhibitors of MBNL1-poly(CUG) RNA binding
# Conditions: TR-FRET MBNL1-His/biotin-(CUG)12 binding, 665/545 ratio; activity change, negative = inhibition: at 57.5 µM (top of the series)
# Summary of the method: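 His-tagged MBNL1 binding to biotinylated (CUG)12 RNA was measured by TR-FRET using terbium anti-His antibody (0.055 ng/ul final) and streptavidin-XL665 (5 nM final). Compounds were titrated 92 nM to 58 uM; 60 min at room temperature.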
# On the % scale 0 is the no-effect control and ±100 the full control effect; potency means the concentration at half of the fitted maximal effect; tags describe the fitted curve by direction and shape or compound fluorescence and quenching.
SMILES,Potency,"activity change, negative = inhibition"
COc1cc(SSc2cc(OC)cc([N+](=O)[O-])c2N)c(N)c([N+](=O)[O-])c1,"inconclusive: 4.47 µM [quencher, side channel, full curve]",–
COc1cc(C2CC(=O)Nc3cc(C)c(C)cc32)cc(OC)c1OC (stereo unspecified),"inconclusive: 2.24 µM [quencher, side channel, single point]",–
COc1ccc(S(=O)(=O)NC(C)CCc2ccccc2)cc1 (stereo unspecified),–,inactive: 0.098%
O=C1CCCC(=O)N1c1ccc(NCCOCCO)c([N+](=O)[O-])c1,"inconclusive: 22.4 µM [quencher, partial curve]",–
O=C(c1ccco1)N(Cc1cccc([N+](=O)[O-])c1)c1ccc(Br)cc1,"inconclusive: 0.141 µM [quencher, side channel, full curve, poor fit]",–
CCCCNc1c([N+](=O)[O-])cc(C(=O)O)cc1[N+](=O)[O-],"inconclusive: 10 µM [quencher, side channel, partial curve]",–
Cc1nn(C)c(C(=O)Nc2ccc(S(=O)(=O)NC34CC5CC(CC(C5)C3)C4)cc2)c1Br,–,inactive: 0.133%
COC(=O)Nc1sc2c(c1C(=O)NCc1ccco1)CCC2,"inconclusive: 14.1 µM [fluorescent, side channel, partial curve]",–
C/C(N)=C(/C#N)C(=O)COC(=O)c1cc(S(=O)(=O)N2CCCCC2)ccc1C,"inconclusive: 3.55 µM [quencher, side channel, single point]",–
O=C(N/N=C/c1ccncc1)c1ccccc1[N+](=O)[O-],"inconclusive: 17.8 µM [quencher, partial curve]",–
Cc1ccc(SCc2nc(N)nc(Nc3ccccc3C)n2)cc1C,"inconclusive: 2.51 µM [fluorescent, side channel, partial curve]",–
COc1ccc(NS(=O)(=O)c2cccc(NC(=O)c3ccc(S(=O)(=O)N4CCCCCC4)cc3)c2)cc1,"inconclusive: 6.31 µM [quencher, side channel, single point]",–
O=C(CNS(=O)(=O)c1ccccc1)OCC(=O)c1ccc([N+](=O)[O-])cc1,"inconclusive: 28.2 µM [quencher, side channel, partial curve]",–
Cc1nn(C)cc1CN1CCCC(C(=O)c2ccc(-c3ccccc3)c(F)c2)C1 (stereo unspecified),"inconclusive: 158 µM [inhibitor, partial curve]",–
O=C(/C=C/c1ccccc1)NC(NC(=S)Nc1ccc(Cl)cc1Cl)C(Cl)(Cl)Cl (stereo unspecified),–,inactive: 12.5%
COc1ccc(NC(=O)c2cccc(N3C(=O)c4ccc(C(=O)Nc5ccc(OC)c(O)c5)cc4C3=O)c2)cc1O,–,inactive: -5.91%
CN1CCN(c2ccc([N+](=O)[O-])cc2/C=N/NC(=O)c2cccc([N+](=O)[O-])c2)CC1,"inconclusive: 1.78 µM [quencher, side channel, full curve]",–
CC(C(=O)NCc1cccnc1)c1ccc([N+](=O)[O-])cc1 (stereo unspecified),"inconclusive: 31.6 µM [quencher, side channel, single point]",–
CCN1CCN(CCCNc2ncnc3nc[nH]c23)CC1,"inconclusive: 12.6 µM [quencher, side channel, partial curve]",–
CC1(C)NC(C)(C)/C(=C\c2cccs2)C(=O)C1=O,"inconclusive: 12.6 µM [quencher, side channel, partial curve]",–
O=C(Nc1ccc(-c2ccc3nncn3n2)cc1)C1CCCC1,"inconclusive: 8.91 µM [quencher, side channel, partial curve]",–

SMILES,Potency,"activity change, negative = inhibition"
Cc1cc[n+](-c2ccccc2)c2ccccc12,"inconclusive: 8.91 µM [quencher, partial curve]",–
C/C(=N\NC(=O)CCc1c[nH]c2ccccc12)c1ccc([N+](=O)[O-])cc1,"inconclusive: 3.55 µM [quencher, side channel, single point]",–
O=C(NC(=S)NC1CCCCC1)c1ccccc1[N+](=O)[O-],"inconclusive: 28.2 µM [quencher, side channel, single point]",–
O=C(NCCc1ccccc1)C(c1ccccc1F)N(C(=O)c1csnn1)C1CC1 (stereo unspecified),–,inactive: -2.07%
O=S(=O)(NCc1ccccc1)c1ccc2c(c1)OCCO2,"inconclusive: 0.141 µM [quencher, side channel, full curve, poor fit]",–
O=C(Nc1cccc(-c2cnc3ccccc3n2)c1)c1ccncc1,"inconclusive: 1.12 µM [quencher, side channel, full curve, poor fit]",–
CCN1C(=O)c2cccc3c(NC(=O)C(C)(C)C)ccc1c23,"inconclusive: 17.8 µM [quencher, side channel, single point]",–
NS(=O)(=O)c1ccc(CCNC(=O)CSc2ccc([N+](=O)[O-])cc2)cc1,"inconclusive: 25.1 µM [quencher, side channel, partial curve]",–
O=C1c2cccc3cccc(c23)C(=O)N1CC1CCN(CC(O)COc2ccc3ccccc3c2)CC1 (stereo unspecified),"inconclusive: 20 µM [quencher, side channel, single point]",–
COc1ccc(/C=N/NC(=O)c2nn(-c3ccc(C)c(C)c3)c(=O)c3ccccc23)cc1,"inconclusive: 6.31 µM [quencher, side channel, single point]",–
COC(=O)c1oc2ccc(OC)cc2c1N,"inconclusive: 3.98 µM [quencher, side channel, full curve, poor fit]",–
O=C(O)CCNC(=O)/C(=C\C=C\c1ccccc1)NC(=O)c1ccccc1,"inconclusive: 14.1 µM [quencher, side channel, partial curve]",–
CC(C)(C)OC(=O)N[C@@H](Cc1ccccc1)c1nnc(S(=O)(=O)Cc2ccccc2)o1,–,inactive: -1.22%
CC1(C)[C@@H](O)CC[C@]2(C)C3C(O)C=C4[C@H]5C[C@@](C)(CO)CC[C@]5(C)CC[C@]4(C)[C@]3(C)CC[C@@H]12 (stereo partly specified),–,inactive: -0.648%
O=C(Nc1ccc2c(c1)C(=O)N(CC1CCCO1)C2=O)c1ccccc1Br (stereo unspecified),"inconclusive: 39.8 µM [quencher, single point]",–
CC(C)C(=O)Nc1c(-c2ccc(Cl)cc2)c(=O)c2ccccc2n1C,–,inactive: 1.92%
COC(C[C@H]1O[C@H]1[C@H](O)[C@H](C)OCc1ccccc1)OC,–,inactive: -2.92%
CCOC(=O)C1CCN(c2c(Nc3cc(C)cc(C)c3)c(=O)c2=O)CC1,"inconclusive: 39.8 µM [quencher, side channel, single point]",–
COc1cc2c(cc1OC)C(c1ccccc1C(F)(F)F)CC(=O)N2 (stereo unspecified),"inconclusive: 6.31 µM [fluorescent, side channel, single point]",–
O=C(O)c1cc([N+](=O)[O-])ccc1N1CCCCC1,"inconclusive: 12.6 µM [quencher, side channel, partial curve]",–
COc1ccc([N+](=O)[O-])cc1NC(=O)c1cccs1,"inconclusive: 20 µM [quencher, side channel, partial curve]",–

SMILES,Potency,"activity change, negative = inhibition"
COc1ccccc1/C=C/C(=O)NCC(=O)N/N=C/c1ccc(C(=O)O)cc1,"inconclusive: 31.6 µM [quencher, side channel, single point]",–
CCOc1ccc(/C(CCC(=O)O)=N/NC(=S)NCCc2ccccc2)cc1,–,inactive: 2.26%
C=CCN(CC=C)Cc1ccc(C(=O)OC)o1,–,inactive: -4.62%
CC(=O)NNC(=S)NC(=O)C(c1ccccc1)c1ccccc1,–,inactive: 25.1%
COC(=O)CCCC1=CC2=C(c3ccccc3)C(=O)C(C)(OC(=O)C3CCCC3)C(=O)C2=CN1CCc1c[nH]c2ccccc12 (stereo unspecified),"inconclusive: 10 µM [quencher, side channel, partial curve]",–
Cc1ccc(NC2CCCN(C(=O)c3ccc4nccnc4c3)C2)cc1C (stereo unspecified),–,inactive: 4.9%
COc1ccc(/C=C2\SC(=O)N(CCNC(=O)Cn3cnnn3)C2=O)cc1,"inconclusive: 14.1 µM [quencher, partial curve]",–
C#CCOCCOCCOCCNc1nc(N2CCN(C(=O)Cn3cc(CCCN=C(N)N)nn3)CC2)nc(N2CCN(C(=O)Cn3cc(CCCN=C(N)N)nn3)CC2)n1,"inconclusive: 79.4 µM [inhibitor, single point]",–
CCCCCn1c(=O)[nH]c2cc(C(=O)NCCN3CCC(C)CC3)ccc2c1=O,–,inactive: -3.66%
COc1ccc(-c2nnc(SCC(=O)NCCc3ccccc3)o2)cc1,"inconclusive: 39.8 µM [quencher, side channel, single point]",–
Cc1nn(-c2ccccc2)c(N)c1Sc1ccccc1[N+](=O)[O-],"inconclusive: 7.94 µM [quencher, side channel, partial curve]",–
COc1cc(CCCN2C(N)=NC[C@@H]2Cc2ccccc2)cc(OC)c1OC,–,inactive: 3.18%
COc1cccc(-c2onc3ccc(C(C)=O)cc23)c1,"inconclusive: 15.8 µM [quencher, side channel, partial curve]",–
Cc1cccc(NC(=O)Nc2c(C)[nH]c(=O)[nH]c2=O)c1C,–,inactive: -1.44%
CCCCNC(=O)OCCNC(=O)NC,–,inactive: 7.28%
C/C(=N/NC(=O)CN(c1ccccc1)S(=O)(=O)c1ccccc1)c1ccccc1O,–,inactive: 9.29%
Cc1ccc(Cl)cc1NC(=O)CSc1sc2c(O)cc(=O)[nH]c2c1C#N,"inconclusive: 25.1 µM [quencher, single point]",–
COc1ccc(CNC(=O)Cn2nc([N+](=O)[O-])c(Br)c2C)cc1OC,"inconclusive: 28.2 µM [quencher, side channel, single point]",–
Cc1c(NC(=O)c2cc(-n3cnnc3)ccc2Cl)cccc1-c1nc2ccccc2o1,"inconclusive: 0.794 µM [quencher, side channel, single point]",–
